± gives the standard deviation of the averaged measurements. Restriction of a single-cycle SIVsab GFP reporter by TRIM5α v1-loop variants in CRFK cells. Human variants: read share among cells still uninfected after two challenges over input, higher = gained restriction. Rhesus variants: share among infected cells over input, higher = lost restriction. Reporter dose not given per row. No active / inactive call per row; the paper calls a change when both replicates lie above its controls (mean + 2 SD of stop or wild-type variants, or the top frameshift score). Residues outside the varied loop are taken from Swiss-Prot. The paper reads the human single-substitution scores as noise; they and the rhesus combinations repeat poorly (rank correlation 0.3 to 0.4), indel scores repeat only for the top variants, rhesus substitutions well (0.9).

Our source for the enrichment values is the supplement of paper PMC12230231.

The subject of this data set is SIVsab (simian immunodeficiency virus of sabaeus monkeys), single-cycle GFP reporter, in CRFK cells. As to the kind of experiment: enrichment among infected cells over input (fold); higher = weaker restriction. The settings on record: library: human / rhesus combinations. Here is the method:
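Pools of CRFK cells expressing variants of the TRIM5α v1 loop were challenged with the single-cycle reporter, sorted by GFP and sequenced; mean of two replicates.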
In the case of “MASGILLNVKEEVTCPICLELLTEPLSLHCGHSFCQACITANHKKSMLYKEGERSCPVCRISYQPENIQPNRHVANIVEKLREVKLSPEEGQKVDHCARHGEKLLLFCQEDSKVICWLCERSQEHRGHHTFLMEEVAQEYHVKLQTALEMLRQKQQEAEKLEADIREEKASWKIQIDYDKTNVSADFEQLREILDWEESNELQNLEKEEEDILKSLTKSETEMVQQTQYMRELISELEHRLQGSMMDLLQGVDGIIKRIENMTLKKPKTFHKNQRRVFRAPDLKGMLDMFRELTDARRYWVDVTLAPNNISHAVIAEDKRQVSSRNPQIMYQAPGTRYPSLVNFNYCTGVLGSQSITSGKHYWEVDVSKKSAWILGVCAGFQSDAMYNIEQNENYQPKYGYWVIGLQEGVKYSVFQDGSSHTPFAPFIVPLSVIICPDRVGVFVDYEACTVSFFNITNHGFLIYKFSQCSFSKPVFPYLNPRKCTVPMTLCSPSS [rhesus TRIM5α, 332-344 = QAPGTRYPSLV]”, the enrichment is 0.36 ± 0.12. The same measure for “MASGILLNVKEEVTCPICLELLTEPLSLHCGHSFCQACITANHKKSMLYKEGERSCPVCRISYQPENIQPNRHVANIVEKLREVKLSPEEGQKVDHCARHGEKLLLFCQEDSKVICWLCERSQEHRGHHTFLMEEVAQEYHVKLQTALEMLRQKQQEAEKLEADIREEKASWKIQIDYDKTNVSADFEQLREILDWEESNELQNLEKEEEDILKSLTKSETEMVQQTQYMRELISELEHRLQGSMMDLLQGVDGIIKRIENMTLKKPKTFHKNQRRVFRAPDLKGMLDMFRELTDARRYWVDVTLAPNNISHAVIAEDKRQVSSRNPQIMYQAPGTRYTFPSFTNFNYCTGVLGSQSITSGKHYWEVDVSKKSAWILGVCAGFQSDAMYNIEQNENYQPKYGYWVIGLQEGVKYSVFQDGSSHTPFAPFIVPLSVIICPDRVGVFVDYEACTVSFFNITNHGFLIYKFSQCSFSKPVFPYLNPRKCTVPMTLCSPSS [rhesus TRIM5α, 332-344 = QAPGTRYTFPSFT]”: 0.977 ± 0.45; for “MASGILLNVKEEVTCPICLELLTEPLSLHCGHSFCQACITANHKKSMLYKEGERSCPVCRISYQPENIQPNRHVANIVEKLREVKLSPEEGQKVDHCARHGEKLLLFCQEDSKVICWLCERSQEHRGHHTFLMEEVAQEYHVKLQTALEMLRQKQQEAEKLEADIREEKASWKIQIDYDKTNVSADFEQLREILDWEESNELQNLEKEEEDILKSLTKSETEMVQQTQYMRELISELEHRLQGSMMDLLQGVDGIIKRIENMTLKKPKTFHKNQRRVFRAPDLKGMLDMFRELTDARRYWVDVTLAPNNISHAVIAEDKRQVSSRNPQIMYQAPGTRYTFPSFVNFNYCTGVLGSQSITSGKHYWEVDVSKKSAWILGVCAGFQSDAMYNIEQNENYQPKYGYWVIGLQEGVKYSVFQDGSSHTPFAPFIVPLSVIICPDRVGVFVDYEACTVSFFNITNHGFLIYKFSQCSFSKPVFPYLNPRKCTVPMTLCSPSS [rhesus TRIM5α, 332-344 = QAPGTRYTFPSFV]”: 1.68 ± 1.3; for “MASGILLNVKEEVTCPICLELLTEPLSLHCGHSFCQACITANHKKSMLYKEGERSCPVCRISYQPENIQPNRHVANIVEKLREVKLSPEEGQKVDHCARHGEKLLLFCQEDSKVICWLCERSQEHRGHHTFLMEEVAQEYHVKLQTALEMLRQKQQEAEKLEADIREEKASWKIQIDYDKTNVSADFEQLREILDWEESNELQNLEKEEEDILKSLTKSETEMVQQTQYMRELISELEHRLQGSMMDLLQGVDGIIKRIENMTLKKPKTFHKNQRRVFRAPDLKGMLDMFRELTDARRYWVDVTLAPNNISHAVIAEDKRQVSSRNPQIMYQAPGTRYTFPSLVNFNYCTGVLGSQSITSGKHYWEVDVSKKSAWILGVCAGFQSDAMYNIEQNENYQPKYGYWVIGLQEGVKYSVFQDGSSHTPFAPFIVPLSVIICPDRVGVFVDYEACTVSFFNITNHGFLIYKFSQCSFSKPVFPYLNPRKCTVPMTLCSPSS [rhesus TRIM5α, 332-344 = QAPGTRYTFPSLV]”: 1.1488 ± 0.00057. As for “MASGILLNVKEEVTCPICLELLTEPLSLHCGHSFCQACITANHKKSMLYKEGERSCPVCRISYQPENIQPNRHVANIVEKLREVKLSPEEGQKVDHCARHGEKLLLFCQEDSKVICWLCERSQEHRGHHTFLMEEVAQEYHVKLQTALEMLRQKQQEAEKLEADIREEKASWKIQIDYDKTNVSADFEQLREILDWEESNELQNLEKEEEDILKSLTKSETEMVQQTQYMRELISELEHRLQGSMMDLLQGVDGIIKRIENMTLKKPKTFHKNQRRVFRAPDLKGMLDMFRELTDARRYWVDVTLAPNNISHAVIAEDKRQVSSRNPQIMYQAPGTRYTFPTFTNFNYCTGVLGSQSITSGKHYWEVDVSKKSAWILGVCAGFQSDAMYNIEQNENYQPKYGYWVIGLQEGVKYSVFQDGSSHTPFAPFIVPLSVIICPDRVGVFVDYEACTVSFFNITNHGFLIYKFSQCSFSKPVFPYLNPRKCTVPMTLCSPSS [rhesus TRIM5α, 332-344 = QAPGTRYTFPTFT]”, the enrichment turned out to be 0.766 ± 0.2. As to “MASGILLNVKEEVTCPICLELLTEPLSLHCGHSFCQACITANHKKSMLYKEGERSCPVCRISYQPENIQPNRHVANIVEKLREVKLSPEEGQKVDHCARHGEKLLLFCQEDSKVICWLCERSQEHRGHHTFLMEEVAQEYHVKLQTALEMLRQKQQEAEKLEADIREEKASWKIQIDYDKTNVSADFEQLREILDWEESNELQNLEKEEEDILKSLTKSETEMVQQTQYMRELISELEHRLQGSMMDLLQGVDGIIKRIENMTLKKPKTFHKNQRRVFRAPDLKGMLDMFRELTDARRYWVDVTLAPNNISHAVIAEDKRQVSSRNPQIMYQAPGTRYTFPTFVNFNYCTGVLGSQSITSGKHYWEVDVSKKSAWILGVCAGFQSDAMYNIEQNENYQPKYGYWVIGLQEGVKYSVFQDGSSHTPFAPFIVPLSVIICPDRVGVFVDYEACTVSFFNITNHGFLIYKFSQCSFSKPVFPYLNPRKCTVPMTLCSPSS [rhesus TRIM5α, 332-344 = QAPGTRYTFPTFV]”, the enrichment worked out at 1.6 ± 0.77. With “MASGILLNVKEEVTCPICLELLTEPLSLHCGHSFCQACITANHKKSMLYKEGERSCPVCRISYQPENIQPNRHVANIVEKLREVKLSPEEGQKVDHCARHGEKLLLFCQEDSKVICWLCERSQEHRGHHTFLMEEVAQEYHVKLQTALEMLRQKQQEAEKLEADIREEKASWKIQIDYDKTNVSADFEQLREILDWEESNELQNLEKEEEDILKSLTKSETEMVQQTQYMRELISELEHRLQGSMMDLLQGVDGIIKRIENMTLKKPKTFHKNQRRVFRAPDLKGMLDMFRELTDARRYWVDVTLAPNNISHAVIAEDKRQVSSRNPQIMYQAPGTRYTFPTLTNFNYCTGVLGSQSITSGKHYWEVDVSKKSAWILGVCAGFQSDAMYNIEQNENYQPKYGYWVIGLQEGVKYSVFQDGSSHTPFAPFIVPLSVIICPDRVGVFVDYEACTVSFFNITNHGFLIYKFSQCSFSKPVFPYLNPRKCTVPMTLCSPSS [rhesus TRIM5α, 332-344 = QAPGTRYTFPTLT]”, the enrichment was determined as 0.907 ± 0.25. As for “MASGILLNVKEEVTCPICLELLTEPLSLHCGHSFCQACITANHKKSMLYKEGERSCPVCRISYQPENIQPNRHVANIVEKLREVKLSPEEGQKVDHCARHGEKLLLFCQEDSKVICWLCERSQEHRGHHTFLMEEVAQEYHVKLQTALEMLRQKQQEAEKLEADIREEKASWKIQIDYDKTNVSADFEQLREILDWEESNELQNLEKEEEDILKSLTKSETEMVQQTQYMRELISELEHRLQGSMMDLLQGVDGIIKRIENMTLKKPKTFHKNQRRVFRAPDLKGMLDMFRELTDARRYWVDVTLAPNNISHAVIAEDKRQVSSRNPQIMYQAPGTRYTFPTLVNFNYCTGVLGSQSITSGKHYWEVDVSKKSAWILGVCAGFQSDAMYNIEQNENYQPKYGYWVIGLQEGVKYSVFQDGSSHTPFAPFIVPLSVIICPDRVGVFVDYEACTVSFFNITNHGFLIYKFSQCSFSKPVFPYLNPRKCTVPMTLCSPSS [rhesus TRIM5α, 332-344 = QAPGTRYTFPTLV]”, the enrichment was determined as 4.62 ± 3.5. As for “MASGILLNVKEEVTCPICLELLTEPLSLHCGHSFCQACITANHKKSMLYKEGERSCPVCRISYQPENIQPNRHVANIVEKLREVKLSPEEGQKVDHCARHGEKLLLFCQEDSKVICWLCERSQEHRGHHTFLMEEVAQEYHVKLQTALEMLRQKQQEAEKLEADIREEKASWKIQIDYDKTNVSADFEQLREILDWEESNELQNLEKEEEDILKSLTKSETEMVQQTQYMRELISELEHRLQGSMMDLLQGVDGIIKRIENMTLKKPKTFHKNQRRVFRAPDLKGMLDMFRELTDARRYWVDVTLAPNNISHAVIAEDKRQVSSRNPQIMYQAPGTRYTFQSFTNFNYCTGVLGSQSITSGKHYWEVDVSKKSAWILGVCAGFQSDAMYNIEQNENYQPKYGYWVIGLQEGVKYSVFQDGSSHTPFAPFIVPLSVIICPDRVGVFVDYEACTVSFFNITNHGFLIYKFSQCSFSKPVFPYLNPRKCTVPMTLCSPSS [rhesus TRIM5α, 332-344 = QAPGTRYTFQSFT]”, the enrichment is 1.8 ± 0.69. Turning to “MASGILLNVKEEVTCPICLELLTEPLSLHCGHSFCQACITANHKKSMLYKEGERSCPVCRISYQPENIQPNRHVANIVEKLREVKLSPEEGQKVDHCARHGEKLLLFCQEDSKVICWLCERSQEHRGHHTFLMEEVAQEYHVKLQTALEMLRQKQQEAEKLEADIREEKASWKIQIDYDKTNVSADFEQLREILDWEESNELQNLEKEEEDILKSLTKSETEMVQQTQYMRELISELEHRLQGSMMDLLQGVDGIIKRIENMTLKKPKTFHKNQRRVFRAPDLKGMLDMFRELTDARRYWVDVTLAPNNISHAVIAEDKRQVSSRNPQIMYQAPGTRYTFQSFVNFNYCTGVLGSQSITSGKHYWEVDVSKKSAWILGVCAGFQSDAMYNIEQNENYQPKYGYWVIGLQEGVKYSVFQDGSSHTPFAPFIVPLSVIICPDRVGVFVDYEACTVSFFNITNHGFLIYKFSQCSFSKPVFPYLNPRKCTVPMTLCSPSS [rhesus TRIM5α, 332-344 = QAPGTRYTFQSFV]”, the enrichment amounted to 1.42 ± 0.59. To “MASGILLNVKEEVTCPICLELLTEPLSLHCGHSFCQACITANHKKSMLYKEGERSCPVCRISYQPENIQPNRHVANIVEKLREVKLSPEEGQKVDHCARHGEKLLLFCQEDSKVICWLCERSQEHRGHHTFLMEEVAQEYHVKLQTALEMLRQKQQEAEKLEADIREEKASWKIQIDYDKTNVSADFEQLREILDWEESNELQNLEKEEEDILKSLTKSETEMVQQTQYMRELISELEHRLQGSMMDLLQGVDGIIKRIENMTLKKPKTFHKNQRRVFRAPDLKGMLDMFRELTDARRYWVDVTLAPNNISHAVIAEDKRQVSSRNPQIMYQAPGTRYTFQSLTNFNYCTGVLGSQSITSGKHYWEVDVSKKSAWILGVCAGFQSDAMYNIEQNENYQPKYGYWVIGLQEGVKYSVFQDGSSHTPFAPFIVPLSVIICPDRVGVFVDYEACTVSFFNITNHGFLIYKFSQCSFSKPVFPYLNPRKCTVPMTLCSPSS [rhesus TRIM5α, 332-344 = QAPGTRYTFQSLT]” belongs 1.9 ± 0.51.
